Laboratory results from PubChem BioAssay AID445 (National Center for Advancing Translational Sciences (NCATS), 2006).
Out of some 110,000 compounds screened, about 40 (0.04%) were called active. This list was built around the results that the source calls inconclusive (neither active nor inactive); the mix of calls is not that of the screen. Calls come from the whole dose curve; as a rule, active = well fitted curve in the direction sought with a large enough effect in the signal ratio (not every such curve was filed as active); inconclusive = small, poorly fitted or top-dose-only effect, or a change in a side signal; inactive = flat fitted curve, though single readings scatter; the % refers to the signal ratio. Where the call is inconclusive, the potency comes from a doubtful curve fit.

assay: IkB Signaling; conditions: ABC-DLBCL IkBa-CBG/CBR dual luciferase ratio (green luciferase fused to IkBa over red control in OCI-Ly3 lymphoma cells), 4 h; IkBa stabilization activation: at 57.1 µM (top of the series), scaled: untreated 0%, proteasome inhibitor 100% unless noted;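 for IkBa stabilization activation: 0% = basal untreated cells and 100% = reference inhibitor full response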
Procedure, shortened: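 In this assay, an IκBα–CBG68 fusion accumulates when IKK-driven degradation is blocked; native CBR normalizes for cell number. OCI-Ly3 cells were treated 4 h with compound and doxycycline, then green and red light read after Chroma-Glo addition.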
Potency is the fitted concentration of half-maximal effect.

SMILES | IkBa stabilization activation | Potency
O=C1CSC2(C(=O)N(Cc3ccccc3)c3ccccc32)N1c1cccc(F)c1 (stereo unspecified) | inconclusive: -0.00978% [signal inhibitor] | 
Cn1c(C(=O)N2CCN(c3nc4ccccc4s3)CC2)cc2sccc21 | inconclusive: 4.07% [signal activator] | 
CCN(CC)CCCNc1cc(-c2ccccc2)nc(C)n1 | inconclusive: 1.1% [signal inhibitor] | 
CCOc1ccc2nc(N3CCN(C(=O)c4ccc(S(=O)(=O)CC)cc4)CC3)sc2c1 |  | inconclusive: 31.6 µM [signal inhibitor]
COc1ccc(-n2cc(C(=O)N(CCN(C)C)Cc3ccccc3)c3ccccc3c2=O)cc1 | inconclusive: 0.239% [signal inhibitor] | 
C=C(CC)C(=O)c1ccc(OCC(=O)O)c(Cl)c1Cl | inconclusive: -4.6% [signal inhibitor] | 
COc1cc(C(=O)N(Cc2ccc(F)cc2)Cc2ccco2)cc(OC)c1OC | inconclusive: 1% [signal inhibitor] | 
COc1cc(OC)cc(C(=O)Nc2cc(-c3nc4ccccc4[nH]3)ccc2C)c1 | inconclusive: -1.66% [signal inhibitor] | 
O=C(/C=C/c1ccco1)Nc1ccc(F)cc1 |  | inconclusive: 31.6 µM [signal inhibitor]
COC(=O)c1c(SC)nc2ccccc2c1OCc1ccc(Br)cc1 | inconclusive: 0.718% [signal inhibitor] | 
O=S(=O)(c1cccc(Cl)c1)N1CCCC1 | inactive | 
N#Cc1c(-c2ccccc2)cc(C2CC2)nc1N | inactive | 
COc1cccc(Cn2c(N)c(C#N)c3nc4ccccc4nc32)c1OC | inactive | 
c1coc(CN=C2NC(=NCc3ccco3)c3ccccc32)c1 | inactive | 
CC1=C(C(=O)Nc2cc(Cl)ccc2C)C2(CCCCC2)OC1=O | inconclusive: 0.592% [signal inhibitor] | 
Cc1cc(C)cc(NC(=O)CCc2nnc3n(C)c(=O)c4sccc4n23)c1 | inconclusive: 0.652% [signal inhibitor] | 
Cc1cc(C)n2nc(CNC(=O)c3ccccc3Cl)nc2n1 | inconclusive: 3.67% [signal inhibitor] | 
Cc1ccc(-c2nn(C)c(=O)c3ccccc23)cc1S(=O)(=O)NCCN1CCOCC1 | inactive | 
CCOc1ccc(NC(=O)C2CCN(c3nc4ccccc4[nH]3)CC2)cc1 | inactive | 
COC(=O)c1c(-c2ccco2)csc1NC(=O)C1CC=CCC1C(=O)O (stereo unspecified) | inconclusive: 5.62% [signal inhibitor] | 
COc1ccc2c(C)c(CCC(=O)NCc3ccc(C)cc3)c(=O)oc2c1 | inconclusive: -1.5% [signal inhibitor] | 
CCC(CC)C(=O)OCc1cc(=O)n2nc(C3CCCCC3)sc2n1 | inconclusive: 12.3% [signal inhibitor] | 
Cc1ccc(-c2c(C(=O)N3CCN(c4cccc(C)c4)C(C)C3)oc(=O)c3ccccc23)cc1 (stereo unspecified) | inconclusive: -1.2% [signal inhibitor] | 

SMILES | IkBa stabilization activation | Potency
CCOc1ccc(CN2CCc3nc(N4CCN(c5ncccn5)CC4)ncc3C2)cc1OC | inactive | 
COC(=O)C1=C(C)N=C2SCCC(=O)N2C1c1ccc(OCc2ccccc2)c(OC)c1 (stereo unspecified) | inconclusive: 1.63% [signal inhibitor] | 
CC(C)(C)OC(=O)N1CCC(c2c(C(=O)NCCc3ccsc3)cnn2-c2ccccc2Cl)CC1 | inconclusive: -0.405% [signal inhibitor] | 
CCOc1ccc(N2C(=O)CS(=O)(=O)C23C(=O)N(Cc2cccc(Cl)c2)c2ccccc23)cc1 (stereo unspecified) | inconclusive: 1.54% [signal inhibitor] | 
CC(C)c1cc(C(F)(F)F)n2nc(C(=O)Nc3ccc4c(c3)OCO4)cc2n1 | inactive | 
CCc1c(C)nc2nncn2c1Nc1ccc(Cl)cc1 | inconclusive: -2.56% [signal inhibitor] | 
CC1=CC(=C2C(=O)c3ccccc3C2=O)C=C(C)O1 | inactive | 
COc1ccc(-n2c(=O)c3c4c(sc3n(Cc3ccc(C)cc3C)c2=O)CCC4)c(OC)c1 | inconclusive: 1.75% [signal inhibitor] | 
CCOc1ccccc1NS(=O)(=O)c1ccc2c(c1)CC(C)N2C(=O)C1CC1 (stereo unspecified) | inactive | 
N#Cc1ccc(CN2CC3(CCN(C(=O)c4ccco4)CC3)C2)cc1 | inactive: -1.09% [at 11.4 µM, scaled: untreated 0%, proteasome inhibitor 100%] | 
COc1ccc(NC(C)=O)cc1NC(=O)CSc1nnc(-c2ccccc2)n1N | inactive | 
O=C(NCCC1=CCCCC1)C1CCN(Cc2cnn(-c3ccccc3)c2-n2cccc2)CC1 | inconclusive: 14.7% [signal inhibitor] | 
CCCCCCCCCCCCCCCC(=O)O[C@H](CC(=O)O)C[N+](C)(C)C | inactive | 
COc1ccc(-c2ccc(SCC(=O)Nc3cc(C)on3)nn2)cc1OC | inactive | 
COc1ccc(N2CC(NC(=O)COc3ccc(F)cc3)CC2=O)cc1OC (stereo unspecified) | inconclusive: 0.892% [signal inhibitor] | 
CCOC(=O)C(=O)NCC(c1cccnc1)N1CCN(c2ccccc2)CC1 (stereo unspecified) | inconclusive: 1.67% [signal inhibitor] | 
CCOC(=O)NC(Nc1nc2ccccc2s1)(C(=O)OCC)C(F)(F)F (stereo unspecified) | inactive | 
CCC1CN(C(=O)NCc2ccccc2)c2cc(Cl)ccc2O1 (stereo unspecified) | inconclusive: 6.46% [signal inhibitor] | 
COc1ccc(S(=O)(=O)NCCc2nnc3ccc(SCC(=O)Nc4cc(C)cc(C)c4)nn23)cc1 | inconclusive: 0.471% [signal inhibitor] | 
O=C(NCc1ccc2c(c1)CCN2C(=O)c1ccncc1)c1ccccc1Cl | inconclusive: 0.595% [signal inhibitor] | 
COc1cccc(Cn2c(=O)c(-c3ccc(Cl)cc3)nc3cnc(N4CCN(C)CC4)nc32)c1 | inactive: 0.189% [at 11.4 µM, scaled: untreated 0%, proteasome inhibitor 100%] | 
Cc1ccc(Cl)cc1N1CCN(C(=O)c2ccc(NS(=O)(=O)c3c(C)noc3C)cc2)CC1 | inconclusive: 11.6% [signal inhibitor] | 
COc1ccccc1CCNC(=O)C(=O)NCC(c1ccco1)S(=O)(=O)c1ccc(F)cc1 (stereo unspecified) | inconclusive: 0.768% [signal inhibitor] | 
